Reference: PubChem BioAssay AID2147 (National Center for Advancing Translational Sciences (NCATS), 2009)
About 3,600 (1.6%) of roughly 230,000 compounds were called active. This list was built around the results that the source calls inconclusive (neither active nor inactive); the mix of calls is not that of the screen. The call rests on the fitted dose curve; in most records, active means well fitted inhibition curve with a large enough effect (not every such curve was filed as active); inconclusive means small, poorly fitted or top-dose-only effect, or another doubt; inactive means no such curve, though single readings can be large or run the other way. A potency beside an inconclusive call is a rough fit, not a confirmed value.

biological target: Lysine-specific demethylase 4E (Homo sapiens) (UniProt B2RXH2); test: qHTS Assay for Inhibitors of Human Jumonji Domain Containing 2E (JMJD2E); details: JMJD2E catalytic domain, FDH-coupled NADH fluorescence (FDH is formaldehyde dehydrogenase); series mostly up to 57.1 µM; activity change, negative = inhibition: at the top concentration
Sequence of UniProt B2RXH2 (B2RXH2 whole entry, looked up, the tested form may be a part): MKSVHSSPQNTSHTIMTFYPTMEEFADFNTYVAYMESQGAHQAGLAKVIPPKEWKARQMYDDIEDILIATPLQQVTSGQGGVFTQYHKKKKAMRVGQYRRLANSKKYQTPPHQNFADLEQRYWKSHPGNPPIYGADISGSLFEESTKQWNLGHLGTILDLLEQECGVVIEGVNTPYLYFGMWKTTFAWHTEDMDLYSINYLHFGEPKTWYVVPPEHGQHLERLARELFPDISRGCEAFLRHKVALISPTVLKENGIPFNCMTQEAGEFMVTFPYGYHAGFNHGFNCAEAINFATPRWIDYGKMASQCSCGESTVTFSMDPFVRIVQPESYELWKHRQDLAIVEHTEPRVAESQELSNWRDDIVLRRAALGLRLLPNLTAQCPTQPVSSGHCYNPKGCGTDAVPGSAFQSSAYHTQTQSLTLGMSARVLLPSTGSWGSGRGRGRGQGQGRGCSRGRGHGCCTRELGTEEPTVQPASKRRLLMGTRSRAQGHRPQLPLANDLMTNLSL
Further: nearly all actives have a fitted effect of over 50% in size.
Potency means the concentration at half of the fitted maximal effect; tags describe the fitted curve by direction and shape.
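Wherever activity change, negative = inhibition is given: 0% = wells with enzyme and -100% = buffer wells without enzyme.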

| SMILES | Potency | activity change, negative = inhibition |
| --- | --- | --- |
| Cc1cc(S(=O)(=O)N(Cc2cccs2)Cc2ccccc2F)ccc1-n1cnnn1 | inconclusive: 28.2 µM [inhibitor, single point] | – |
| CCOc1ccc2[nH]c(C)cc(=O)c2c1 | inconclusive: 28.2 µM [inhibitor, partial curve] | – |
| CC[n+]1c(/C=C/c2ccc(N(C)C)cc2)ccc2ccccc21 | – | inactive: -2.61% |
| COC(=O)C1Cc2c([nH]c3ccccc23)CN1 (stereo not given) | inconclusive: 35.5 µM [inhibitor, partial curve] | – |
| O=C(Nc1cccc(Cl)c1)c1csc(-c2ccccc2)n1 | inconclusive: 31.6 µM [inhibitor, single point] | – |
| Cc1ccc(OCCCC(=O)Nc2ccccc2C(F)(F)F)cc1 | – | inactive: -2.27% |
| Oc1ccc(Cl)cc1C1=Nc2ccccc2N=C(c2ccco2)C1 | inconclusive: 39.8 µM [inhibitor, single point] | – |
| Cc1ncc(CO)c(/C=N/NC(=O)c2ccccc2Br)c1O | inconclusive: 35.5 µM [inhibitor, partial curve] | – |
| CCC(=O)Nc1cc(C(=O)OCC(=O)c2ccccc2)ccc1C | – | inactive: -0.667% |
| Cc1nc2sc(C(N)=O)c(N)c2c2c1CCCC2 | inconclusive: 22.4 µM [inhibitor, partial curve] | – |
| CCCCNC(=O)N(c1c(N)n(Cc2ccccc2)c(=O)[nH]c1=O)C1CCCC1 | inconclusive: 0.0631 µM [inhibitor, full curve, poor fit] | – |
| O=C(CSc1nnc(-c2ccc(C(F)(F)F)cn2)s1)c1ccccc1 | – | inactive: -18.1% |
| O=C(OCC(=O)c1ccc(S(=O)(=O)N2CCCC2)cc1)C1=COCCO1 | – | inactive: -7.11% |
| Cc1ccnc2nc(C(=O)Nc3ccc(S(=O)(=O)N4CCCC4)cc3)nn12 | inconclusive: 35.5 µM [inhibitor, partial curve] | – |
| Cc1nc(NC(=O)COC(=O)CCS(=O)(=O)c2ccccc2Cl)c(Cl)cc1Cl | inconclusive: 35.5 µM [inhibitor, single point] | – |
| O=C(Nc1ccc(-c2nnc(-c3ccco3)o2)cc1)C(c1ccccc1)c1ccccc1 | inconclusive: 28.2 µM [inhibitor, partial curve] | – |
| CCOC(=O)Nc1ccc(NCc2ccc(F)cc2)nc1N | inconclusive: 31.6 µM [inhibitor, partial curve] | – |
| COc1ccc(CN2CCN(C(=O)c3ccc4nc(N5CCOCC5)sc4c3)CC2)c(OC)c1OC | inconclusive: 22.4 µM [inhibitor, single point] | – |
| CCN(CC)S(=O)(=O)c1ccc2nc(CCl)[nH]c2c1 | inconclusive: 14.1 µM [inhibitor, partial curve] | – |
| Cc1nc(SCC(=O)OCc2ccccc2)c(C#N)c(-c2ccccc2)c1C(=O)Nc1ccccc1 | inconclusive: 39.8 µM [inhibitor, single point] | – |
| COC(=O)c1ccc(C(/C=C/[C@@H](C)C(=O)N[C@H](C)CO)NC(=O)OCc2ccccc2)cc1 (stereo not given in full) | – | inactive: 2.77% |
| CC(OC(=O)c1snc(C(=O)NC2CCCCC2)c1N)C(=O)NC(C)(C)C (stereo not given) | inconclusive: 31.6 µM [inhibitor, partial curve] | – |
| NNC(=O)c1cnn(Cc2ccccc2)c1N | – | inactive: 5.1% |

| SMILES | Potency | activity change, negative = inhibition |
| --- | --- | --- |
| C=CCn1c(-c2cccc(Cl)c2)n[nH]c1=S | inconclusive: 25.1 µM [inhibitor, single point] | – |
| CCC[C@@H]1C[C@@]1(CCC)C(NP(=O)(c1ccccc1)c1ccccc1)c1ccc(Cl)cc1 (stereo not given in full) | active: 25.1 µM | – |
| Cc1cccc2cc(C#N)c(SCC(=O)N3CC(=O)Nc4ccccc43)nc12 | inconclusive: 39.8 µM [inhibitor, single point] | – |
| COc1ccc(N(CC(=O)N/N=C/c2cccc3c2OCCO3)S(=O)(=O)c2ccc(NC(C)=O)cc2)cc1 | inconclusive: 35.5 µM [inhibitor, partial curve] | – |
| O=C(CN1C2=NCCCN2c2ccccc21)c1cccc(Br)c1 | – | inactive: -4.71% |
| COc1cc(/C=C/C(=O)c2cccs2)cc(OC)c1OC | inconclusive: 35.5 µM [inhibitor, partial curve] | – |
| Cc1ccc(NS(=O)(=O)c2cc(C(=O)N3CCc4ccccc4C3)ccc2Cl)cc1 | – | inactive: -1.18% |
| C/C(=N\NC(=O)CNc1ccc(F)cc1)c1cc2ccccc2o1 | – | inactive: -6.92% |
| CC1CCC2(CC1)NC(=O)N(CC(=O)Nc1sc3c(c1C(N)=O)CCC3)C2=O (stereo not given) | inconclusive: 31.6 µM [inhibitor, partial curve] | – |
| c1ccc(NCc2ccccn2)cc1 | – | inactive: 2.63% |
| CCCCc1nc(N2CCOCC2)c(C#N)c2c1CCCC2 | inconclusive: 25.1 µM [inhibitor, partial curve] | – |
| COc1ccc(Nc2ncnc3sc(-c4ccccc4)cc23)c(OC)c1 | inconclusive: 35.5 µM [inhibitor, partial curve] | – |
| CCOC(=O)CSc1nc(=O)n2cccc(C)c2n1 | inconclusive: 35.5 µM [inhibitor, single point] | – |
| COc1ccc(CC(=O)Nc2ccc(C(=O)NC(C)(C)C)cc2)cc1OC | – | inactive: 1.52% |
| CCOC(=O)c1cccc(NC(=O)/C=C/c2cccc([N+](=O)[O-])c2)c1 | – | inactive: 5.52% |
| Cc1cc2nc(-c3ccc4c(c3)CCC4)ccn2n1 | inconclusive: 39.8 µM [inhibitor, single point] | – |
| C[N+]1(C)CCc2cc3c(cc2[C@@H]1[C@@H]1C(=O)Oc2c1ccc1c2OCO1)OCO3 | inconclusive: 8.91 µM [inhibitor, full curve, poor fit] | – |
| COc1cc(C2Oc3ccccc3C=C2[N+](=O)[O-])cc(OC)c1OC (stereo not given) | inconclusive: 28.2 µM [inhibitor, single point] | – |
| CC(C)(C)C(=O)Oc1ccc2cc(-c3ccc4ccccc4n3)c(=O)oc2c1 | inconclusive: 3.98 µM [inhibitor, full curve] | – |
| C=CCNC(=O)C1CC2Cn3c(nc4ccccc43)C2N1C (stereo not given) | inconclusive: 39.8 µM [inhibitor, single point] | – |
| O=C(Cn1nnc2ccccc21)c1ccc(Cl)cc1 | – | inactive: 6.46% |
| O=C(Cc1coc2ccc3ccccc3c12)N1CCCC1 | inconclusive: 39.8 µM [inhibitor, single point] | – |
